Results reported in paper PMC6919601, “Identification of Plasmodium dipeptidyl aminopeptidase allosteric inhibitors by high throughput screening” (PLoS ONE, 2019).
Several values for one entry are separate records, joined by “and”; a condition that tells them apart may be missing. Equal values may be shown once. About 230 (0.21%) of roughly 110,000 compounds showed an effect of 50% or more. The list shows a part of the results.

target: DPAP1 (Plasmodium falciparum, UniProt Q8IIJ9); test: primary screen, percent inhibition; read by cleavage of a fluorogenic dipeptide substrate; higher = more effect of the substance; set-up: species or system P. falciparum D10 trophozoite lysates; single well
Sequence (Q8IIJ9 whole entry, looked up): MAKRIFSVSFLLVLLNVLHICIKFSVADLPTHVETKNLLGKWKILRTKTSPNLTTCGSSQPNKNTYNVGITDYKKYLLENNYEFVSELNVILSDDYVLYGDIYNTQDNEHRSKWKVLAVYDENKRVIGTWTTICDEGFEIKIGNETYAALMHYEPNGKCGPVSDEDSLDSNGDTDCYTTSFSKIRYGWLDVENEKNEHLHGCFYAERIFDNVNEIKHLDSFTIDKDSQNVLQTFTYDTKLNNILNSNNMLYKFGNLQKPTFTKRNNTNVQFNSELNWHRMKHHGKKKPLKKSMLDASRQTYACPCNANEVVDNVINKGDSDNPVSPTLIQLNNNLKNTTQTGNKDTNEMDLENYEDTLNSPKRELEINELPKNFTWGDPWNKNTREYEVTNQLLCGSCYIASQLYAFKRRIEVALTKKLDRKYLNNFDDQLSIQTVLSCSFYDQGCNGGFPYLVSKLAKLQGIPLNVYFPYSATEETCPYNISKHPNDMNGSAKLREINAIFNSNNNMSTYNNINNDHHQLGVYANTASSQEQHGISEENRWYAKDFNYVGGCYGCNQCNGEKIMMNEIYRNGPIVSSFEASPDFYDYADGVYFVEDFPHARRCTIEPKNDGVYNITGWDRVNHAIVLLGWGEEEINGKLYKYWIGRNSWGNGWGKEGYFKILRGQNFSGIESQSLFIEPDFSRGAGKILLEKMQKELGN
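Further: 30 min substrate incubation versus DMSO and 10 µM JCP410 controls.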

Row | SMILES | % Inhibition @ 10 uM
1 | Nc1ccc(-c2nc3cc(C(=O)O)ccc3[nH]2)cc1 | 2.73%
2 | Fc1cccc(CN2CCN(Cc3ccc4c(c3)OCO4)CC2)c1 | -0.197%
3 | COc1ccc(C(C#N)Nc2ccccc2)cc1 (stereo not drawn) | 2.87%
4 | CCCN(CCC)S(=O)(=O)c1ccc(-c2cc(C(F)(F)F)no2)s1 | -3.82%
5 | O=S(=O)(c1ccccc1)C1c2ccccc2Oc2ccc(F)cc21 (stereo not drawn) | -1.92%
6 | Nc1nonc1-n1nnc(C(=O)O)c1-c1cccs1 | -1.82%
7 | Cn1c(CNCc2ccccc2)nc2ccccc21 | 3.32%
8 | CN(Cc1ccccc1)c1sc(S(C)(=O)=O)nc1S(=O)(=O)c1ccc(Cl)cc1 | 4.33%
9 | CCOc1ccc(C2=CC(c3ccc(Cl)cc3)n3ncnc3N2)cc1 (stereo not drawn) | 1.73%
10 | CCCN1CCC(NC2C3CC4CC(C3)CC2C4)CC1 (stereo not drawn) | 1.08%
11 | CCC(C)OC(=O)C1=C(C)NC(=O)NC1c1ccc(OC)cc1 (stereo not drawn) | 10.4%
12 | Cc1cc(C(=O)NC(C)C)on1 | 1.62%
13 | CC(C)(C)NC(=O)COc1ccc(CNC2C3CC4CC(C3)CC2C4)cc1 (stereo not drawn) | 3.29%
14 | Cc1cccc(CN2CCN(c3ccc([N+](=O)[O-])cc3)CC2)c1 | -3.71%
15 | O=C(NCCOC(=O)c1ccc(F)cc1)c1ccc(F)cc1 | -2.26%
16 | O=C1c2ccccc2-c2nc3ncccc3nc21 | -4.01%
17 | CCOC(=O)c1[nH]c2ccccc2c1CN(CC)CC | -6.95%
18 | CCOc1ccc(-c2cc(C(=O)N3CCN(C(=O)c4cc(OC)c(OC)c(OC)c4)CC3)[nH]n2)cc1 | 0.49%
19 | COC(=O)c1ccc(C2CC(=O)NC3=C2C(=O)CC(c2ccc(F)cc2)C3)cc1 (stereo not drawn) | 4.78%
20 | Nc1ncnc2c1ncn2CCN1CCCCC1 | -5.2%
21 | COC(=O)c1ccc(-c2ccc(/C=C3/NC(=O)N(Cc4ccc(Br)cc4)C3=O)o2)c(C)c1 | 2.03%
22 | O=C(NCc1ccccc1)C(=O)Nc1ccc(Cl)c(Cl)c1 | -5.9%

Row | SMILES | % Inhibition @ 10 uM
23 | CC1=C(C(=O)N2CCCCC2)C(c2ccc(F)cc2)C2=C(O)CC(C)(C)CC2=N1 (stereo not drawn) | 4.99%
24 | Cc1cc(C)c2c(-n3cccc3)c(C(=O)O)sc2n1 | 1.42%
25 | Cc1nc2sc(C(=O)Nc3ccc(Br)cc3)c(N)c2c(C)c1C | 0.35%
26 | Cc1cccc(N2CCN(Cc3coc4ccccc4c3=O)CC2)c1C | -8.13%
27 | COc1cc(C2c3c(-c4ccccc4O)n[nH]c3C(=O)N2CCc2ccccc2)ccc1O (stereo not drawn) | -3.12%
28 | CN1CCCc2c1nc1ccccc1c2O | -2.42%
29 | O=[N+]([O-])c1ccc(OCCCCCCN2CCCCC2)cc1 | -5.9%
30 | C#CCOc1ccc(C2C(C#N)=C(N)Oc3c2ccc2ccccc32)cc1OC (stereo not drawn) | 1.63%
31 | Clc1ccc(-c2nc3ccncc3[nH]2)cc1 | 4.26% and 5%
32 | COc1cccc(CN2CCN(C(=O)c3cccc(F)c3)CC2)c1OC | -8.42%
33 | CCCCCCNS(=O)(=O)c1ccc(NC(C)=O)cc1 | -2.64%
34 | CCCC[C@H](NC(=O)C1(NC(=O)c2ccc(-c3csc(N4CCN(C)CC4)n3)cc2)CCCCC1)C(=O)c1nc2ccccc2o1 | 4.63%
35 | CCN(CC)CCNC(=O)CCc1c(C)nc2nc(-c3ccc(Cl)cc3Cl)nn2c1C | -2.25%
36 | Cc1ccc(C(c2ccc(C)o2)c2ccccc2Br)o1 | -7.34%
37 | c1ccc(COC(CN2CCCC2)CN2CCCC2)cc1 | -0.711%
38 | CCCCCNc1nc(C(C)C)c2c(c1C#N)CC(C)(C)OC2 | -1.33%
39 | O=C1c2cccc3cccc(c23)C(=O)N1CC1CCN(S(=O)(=O)/C=C/c2ccccc2)CC1 | 7.54%
40 | CC1CCCN(CCCNC(=O)C2CCC(CNS(=O)(=O)c3cccc4nsnc34)CC2)C1 (stereo not drawn) | 1.26%
41 | Cc1nn(CC(=O)NCC(C)c2ccccc2)c(=O)c2c1sc1ccccc12 (stereo not drawn) | -3.12%
42 | CC12CCC3C(CC=C4CC(O)CCC43CO)C1CCC2O (stereo not drawn) | -4.35%
43 | COc1ccc(N2CCN(Cc3ccc(F)c(F)c3)CC2)cc1 | -3.72%
44 | CCc1c(CN2CCN(C(=O)c3ccco3)CC2)csc1C | 1.5%

Row | SMILES | % Inhibition @ 10 uM
45 | Cc1ccc(NC=C2C(=O)CC(c3ccccc3)CC2=O)cc1 (stereo not drawn) | -2.8%
46 | O=S(=O)(Nc1ccc(Br)cc1)c1ccc(C2CCCCC2)cc1 | 6.33%
47 | COc1ccc2c(c1)N(C)/C(=C1/S/C(=N/c3ccc(O)cc3)N(C)C1=O)S2 | -6.59%
48 | CCN(C(=O)c1ccnn1C)c1ccccc1 | 3.86%
49 | Brc1ccc(-c2cnnc(N3CCCC3)n2)cc1 | -4.98%
50 | COc1cccc(/C=C2\SC(Nc3ccc(C)c(Cl)c3)=NC2=O)c1OCC(=O)O | 28.5%
51 | CCOC(=O)c1[nH]c(C)c(C(=O)N2CCN(c3ccccn3)CC2)c1C | 0.655%
52 | COc1ccc(-c2nc(-c3ccc(O)cc3O)cs2)cc1OC | 16.2%
53 | CCN(CC)c1ccc([N+](=O)[O-])c2cccnc12 | -3.94%
54 | O=C(/C=C\c1ccccc1)Nc1ccc(N2CCOCC2)cc1 | -5.11%
55 | O=C(O)/C(=C\c1ccco1)NC(=O)c1ccccc1Cl | 14.1%
56 | Cc1nnc(SC2CCN(S(=O)(=O)c3ccc4c(c3)OCCO4)CC2)s1 | 0.635%
57 | Cc1ccc(S(=O)(=O)c2cnc(S)nc2O)cc1 | -2.41%
58 | CC(C)(C)c1ccc(SC2=CS(=O)(=O)c3ccccc32)cc1 | -1.63%
59 | CC(C)(C)c1[nH]nc2c1C(c1cccnc1)C(C#N)=C(N)O2 (stereo not drawn) | -5.92%
60 | CCOC(=O)C(=Cc1ccc(C)cc1)C(=O)OCC | 1.42%
61 | CCN(CC)C(=O)C1CCCN(Cc2c(C)[nH]c3ccccc23)C1 (stereo not drawn) | 0.847%
62 | O=S(=O)(c1ccc2cc(O)ccc2c1)N1CCOCC1 | 0.565%
63 | CCc1nn(CC(=O)NCCOC)c(=O)c2cc3occc3n12 | -2%
64 | COc1ccc(NC(=O)CCC(=O)c2ccc(Cl)cc2)cc1 | -1.84%
65 | O=C(Nc1ccc2c(c1)OCO2)C(O)(c1ccccc1)c1ccccc1 | 4.03%
66 | CSc1nc(N)c(C#N)c(-c2ccco2)c1C#N | -4.23%
